Results published in article PMC4336329 (PLoS ONE, 2015).
The campaign covered roughly 310,000 compounds. About 2,200 (0.71%) showed an effect of 50% or more. The effect is printed as a negative number. Some of the results follow.

These compounds were tested against human ether-à-go-go-related gene (hERG) potassium channel (human, UniProt Q12809) (assay: primary screen, population patch clamp on CHO cells stably expressing hERG).
Sequence of human ether-à-go-go-related gene (hERG) potassium channel (Q12809 whole entry, looked up): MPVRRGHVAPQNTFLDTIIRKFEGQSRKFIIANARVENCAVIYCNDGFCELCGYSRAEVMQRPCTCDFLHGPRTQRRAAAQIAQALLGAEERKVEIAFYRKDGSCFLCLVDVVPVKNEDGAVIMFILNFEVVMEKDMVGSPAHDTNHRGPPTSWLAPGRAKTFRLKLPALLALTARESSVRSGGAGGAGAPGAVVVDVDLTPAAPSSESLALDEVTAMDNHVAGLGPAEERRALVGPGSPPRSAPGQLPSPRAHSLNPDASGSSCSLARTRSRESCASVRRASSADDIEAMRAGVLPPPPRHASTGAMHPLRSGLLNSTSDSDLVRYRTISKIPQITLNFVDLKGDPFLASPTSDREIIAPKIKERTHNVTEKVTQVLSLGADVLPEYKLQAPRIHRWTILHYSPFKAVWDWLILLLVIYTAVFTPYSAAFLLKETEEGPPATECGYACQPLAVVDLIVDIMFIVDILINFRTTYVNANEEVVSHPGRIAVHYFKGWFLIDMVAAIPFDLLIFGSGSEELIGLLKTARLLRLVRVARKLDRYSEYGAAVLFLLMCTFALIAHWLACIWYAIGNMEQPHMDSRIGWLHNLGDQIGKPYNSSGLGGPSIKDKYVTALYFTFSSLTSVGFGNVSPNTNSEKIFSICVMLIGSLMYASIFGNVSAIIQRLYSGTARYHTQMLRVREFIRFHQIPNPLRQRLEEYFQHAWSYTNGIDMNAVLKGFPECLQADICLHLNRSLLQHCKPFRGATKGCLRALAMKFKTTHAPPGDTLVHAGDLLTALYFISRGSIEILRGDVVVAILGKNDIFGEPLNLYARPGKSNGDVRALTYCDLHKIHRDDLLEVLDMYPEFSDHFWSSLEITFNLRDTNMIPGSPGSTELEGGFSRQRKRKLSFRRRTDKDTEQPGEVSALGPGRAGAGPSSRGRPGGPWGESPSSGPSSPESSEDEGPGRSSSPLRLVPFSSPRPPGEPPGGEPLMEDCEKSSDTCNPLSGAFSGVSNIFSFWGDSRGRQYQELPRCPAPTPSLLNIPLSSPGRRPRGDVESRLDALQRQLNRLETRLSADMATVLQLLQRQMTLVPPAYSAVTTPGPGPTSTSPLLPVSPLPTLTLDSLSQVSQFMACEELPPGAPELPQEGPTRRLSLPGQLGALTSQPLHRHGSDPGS

SMILES	hERG current change (%, negative = inhibition) at 1uM
Cc1ccc(C(=O)N/C(=C\c2ccco2)C(=O)NCCCn2ccnc2)cc1C	-15.7%
COC(=O)C1(CO)NC(c2cccs2)C2C(=O)N(c3ccccc3)C(=O)C21 (stereo not drawn)	10.8%
O=C1N/C(=C/c2cccn2-c2ccccc2)C(=O)N1c1cccc(Cl)c1	8.91%
CCOC(=O)CNC(=O)CN1CCC(c2nc3ccccc3[nH]2)CC1	15.1%
Cc1ccc(S(=O)(=O)N2CCOCC2)cc1C(=O)NCCCn1ccnc1	15.7%
Cn1c2ccccc2c(=O)c2cc(C#CC3=CCCCC3)ccc21	4.55%
O=C(NCCN1CCN(C(=O)c2ccc([N+](=O)[O-])cc2)CC1)C(=O)NCc1ccccc1	-85.9%
Cc1cc(C)n2nc(C(=O)OCC(=O)N3CCC3)nc2n1	12.9%
Cc1cc(C(=O)NC2CCCc3c2cnn3-c2ccc(C)c(C)c2)nc(C)n1 (stereo not drawn)	6.9%
COc1ccc(NS(=O)(=O)c2cc(NC(=O)c3cnc(C)cn3)ccc2N2CCCCC2)cc1	13.4%
O=c1c(Cl)c(N2CCNCC2)cnn1C12CC3CC(CC(C3)C1)C2	11.4%
Cc1ccc(OCCNC(=O)CNC(=O)c2ccc(C)cc2)cc1	2.59%
CCCNC(=O)C1CCN(S(=O)(=O)c2ccc(Br)cc2)CC1	1.4%
Cc1cc(OC(=O)c2ccc(S(=O)(=O)N3CCCCC3)cc2)c([N+](=O)[O-])c(=O)[nH]1	16%
COc1ccc(CCNC(=O)CN2CCN(c3ccccc3Cl)CC2)cc1	11.4%
COc1ccc(C(CNC(=O)COc2cc(C)ccc2Cl)N2CCCCC2)cc1 (stereo not drawn)	6.35%
O=C(Nc1cccc2ccccc12)N1CCc2ccccc2C1	5.49%
O=C(CSc1nc(C2CCCCC2)n(-c2ccccc2)n1)NCC(F)(F)F	5.13%
COc1ccccc1N1CCN(C(=O)c2cc3c(s2)CCC3)CC1	-3.63%
CCN(CC)S(=O)(=O)c1cccc(C(=O)NC(C(=O)NC2=NCCS2)C(C)C)c1 (stereo not drawn)	-3.28%
O=S(=O)(c1ccc2c(c1)OCCO2)N1CCNCC1	12%
CCOc1ccc(NC(=O)c2cc(S(=O)(=O)N3CCOCC3)cn2C)cc1	17.3%
O=C(O)C1CCCCN1S(=O)(=O)c1ccc(Cl)s1 (stereo not drawn)	2.32%

SMILES	hERG current change (%, negative = inhibition) at 1uM
CC(C)CN1CC(C(=O)O)CC1=O (stereo not drawn)	20.4%
Cc1c(NC(=S)NC(=O)c2ccccc2)c(=O)n(-c2ccccc2)n1C	8.94%
O=C(NC(=S)Nc1ccccc1)c1cccs1	16.6%
O=C(COc1ccc(Cl)cc1)Nc1ccc(Cc2ccncc2)cc1	-7.88%
OCCN1c2ccccc2CCc2ccccc21	8.03%
Oc1ccc(C2=NNC(=NCc3ccc4c(c3)OCO4)SC2)c(O)c1	10.8%
O=C1NN(c2ccccc2)C(=O)/C1=C/c1ccc(-c2ccc(C(=O)O)cc2)o1	19%
CCOc1cc(N2CCOCC2)c(OCC)cc1NC(=O)COC(=O)CCOc1cc(C)ccc1C	11.7%
O=C(NCCc1ccc(Cl)cc1)Nc1ccc(F)cc1	10.4%
COCCn1nnnc1C(c1cc2cc(OC)ccc2[nH]c1=O)N1CCC(Cc2ccccc2)CC1 (stereo not drawn)	5.45%
O=C(c1csc2c1CCCC2)n1cccn1	12.4%
COc1cccc(CNC(=O)COC(=O)CCc2cc(OC)c(OC)c(OC)c2)c1	7.59%
Cc1cnc(C(=O)OCC(=O)NC23CC4CC(CC(C4)C2)C3)cn1	-12.2%
Cc1cc(=O)[nH]c(Nc2ccccc2C)n1	2.3%
Oc1ccc(/C=C/c2ccc3ccccc3n2)cc1	24.5%
COc1ccc(NC(=S)N2CCN(Cc3ccco3)CC2)c(OC)c1	16.4%
CC(=O)c1ccc(N=Nc2ccc(N(C)C)cc2)cc1	16%
CCN(CC)c1ccc(NC(=S)NC(=O)Cc2ccccc2)cc1	7.06%
CN(CC(=O)Nc1ccc(F)cc1)c1ccc(S(=O)(=O)N2CCCC2)cn1	7.54%
O=C(c1cccc(Br)c1)N1CCN(c2ccc(N3CCOCC3)nn2)CC1	-2.13%
O=C(/C=C/c1ccco1)NC(=S)Nc1ccccc1O	14.4%
COc1ccc2oc(=O)c(C(=O)Nc3cccc(C)c3)cc2c1	14.7%
